# Test results from the supplement of paper PMC11417369.
# ± gives the standard deviation of the averaged measurements. Some of the results follow.
# System: PfAP2-G AP2 domain (GST-tagged)
# Assay: gcPBM binding intensity (ln(normalized median fluorescence intensity)); higher = stronger DNA binding
# In short: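 An Agilent 4 × 180k array carrying primer-extended double-stranded 36-bp intergenic genomic probes and negative controls received GST-tagged P. falciparum DNA-binding domains expressed in E. coli, about 25 μg on average, for 1 h. The binding buffer contained 1× PBS, 1% milk, 0.2 mg/ml BSA, 0.5% salmon testes DNA and 0.03% Triton X-100. Binding intensity is the top Masliner-normalised natural-log median intensity across replicate spots of either probe orientation, read after Alexa488 anti-GST antibody staining and a 488 nm scan.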
row,Sequence,gcPBM binding intensity (ln)
1,AATAGAATAATCCTTACACACACACGCGCACGAATA [CACACA_site6365],10.3 ± 0.18
2,ATTTTATTTTTTTGTGATAATTGATTTATATATTGT [TGCATGCA_negctrl_site563],9.79 ± 0.12
3,CATAATACCTATAACACACACAATTATACATAAACT [CACACA_site7506],10.1 ± 0.12
4,ATTTATCCAAAAAAATGTACAGGATAATTTGTTCAT [XGTACX_site7737],10.9 ± 0.47
5,TATTATGCCTTTAATATACACACTAATATTTTTTTG [CACACA_site2045],10.12 ± 0.099
6,GGGTTCAATTTAAAGAGTACAAAAAATGTAGGTCAT [XGTACX_site5290],11.4 ± 0.89
7,TTTGTAGTTTGCACATGTACACATTTCAAAATAAAG [XGTACX_site7568],11.5 ± 0.9
8,TTTTAATAAACAAAACGTACACATTATTATTATATA [XGTACX_site335],11.4 ± 0.91
9,TTTCCATATTGTGGATGTACGTTTTGAGGTTTTTAC [XGTACX_site3362],11.2 ± 0.9
10,AATATATACATATATTGTACATATAGTTTCTTGCAT [XGTACX_site7871],10.9 ± 0.5
11,TTTTTTTTTTTGTGGGTGCGTTTATAAAAACAGGAA,10.5 ± 0.64
12,TTTTTTTCTTGTTTTAAATAATATACTGGAAAAAAA [CACACA_negctrl_site585],9.97 ± 0.37
13,AGAGAGAAAGTTATAACATGCAACAATTTTTAGAAC [TGCATGCA_site96],9.785 ± 0.021
14,ATAATACATATAGAAGGTACACTATTATTTTCCTGA [XGTACX_site903],11.1 ± 0.62
15,GAGGTACATTAATTAGTGCATTAAAATTTTTATCCT,10.9 ± 0.67
16,TTTAACATAAATTAAACACACAATAAAATACATTAA [CACACA_site6699],10.1 ± 0.12
17,CATAAATACAGATATACACACATATATATATATATA [CACACA_site4528],10.1 ± 0.42
18,ATTATCCATGCATTTACACACACACTAATAAAAATT [CACACA_site9358],10.3 ± 0.2
19,ACTTCATAAACATTTTGTACGTATGTATCTTTTTAT [XGTACX_site7012],11.2 ± 0.65
20,TTAATATGGAAATGTTGTACATTTCTTGAAGCATTC [XGTACX_site525],11.1 ± 0.79
21,TTATTGAAAAACATAATATCTAAGAGGGTAATATAT [GTGCAC_negctrl_site599],10 ± 0.13
22,TAATTTCTTATGTATTGTACAAATAATATATTATTT [XGTACX_site3066],10.6 ± 0.26

row,Sequence,gcPBM binding intensity (ln)
1,ATTCAAAATAATCACAGTACACATGAGATTATCTTT [XGTACX_site2197],11 ± 0.8
2,GAAATATATAAATTGACACACACATATATACATATA [CACACA_site8323],10 ± 0.15
3,TGTATTATTAATATTTGTACGTAATAATAAAAACAT [XGTACX_site3716],11.5 ± 1
4,TGGAAACAAAAACACACACACAAAAAAAAAAAAAAA [CACACA_site3209],9.83 ± 0.42
5,TCCTTAGAAATATTGATCATAAACTGGAAAGGTATA [XGTACX_negctrl_site354],10 ± 0.24
6,TCCTAATATTTGTCAAATTTCAAAATAAATAAAATG [XGTACX_negctrl_site540],9.97 ± 0.36
7,TAATTAAAATCATATACACACCCATATATATATATA [CACACA_site8524],9.97 ± 0.26
8,TTAAAAATATTATGTACACACATTTTAGATATTTGT [CACACA_site1846],11.6 ± 0.77
9,TAAATATATATATATTGTACAAAACAAATGTGAATT [XGTACX_site696],10.7 ± 0.28
10,ATATTAAGTTTTATTACACACTCTCAATTTTTATTT [CACACA_site4206],9.91 ± 0.11
11,TAAATGTTTCTCAAAAGTACACATGTGATATTTCTT [XGTACX_site2065],11.2 ± 0.82
12,TATATATATATGTACACACACACATATAAATAAATA [CACACA_site443],11.5 ± 1.1
13,TAAAAGGGGATATATGAACACACAAAAAAAAAATAT [CACACA_site8940],10.2 ± 0.19
14,TTAAAAAAAAAAAAAAGTACATAAGTATATATAATA [XGTACX_site4295],11.7 ± 1
15,CATATTTTTTCTTAAACACACACATATATATATATA [CACACA_site8920],10.4 ± 0.47
16,CATATTATATTTTCATGTACACATAACATATTTATA [XGTACX_site4787],11.4 ± 1
17,GTTATAAACAAAATAAATATATGAATATATAATAAT [XGTACX_negctrl_site96],9.6 ± 0.13
18,TACAAATATAGATGCACACACATATAGGTATATGTG [CACACA_site7439],10.5 ± 0.16
19,TATATATAATTATAAGAACACACATATATATATATA [CACACA_site8786],10.2 ± 0.45
20,ATATATTTCTGTCAAGCACACATAATATTAATATAT [CACACA_site7993],10.1 ± 0.11
21,AATGATACTTAGGGGCATGTCTCTGGGGGCATAACC [CACACA_negctrl_site591],10.8 ± 0.61
22,AAGTTTTCTTAAAGCTGTACTTTTTAAAAATAAAAT [XGTACX_site7716],11.4 ± 0.91

row,Sequence,gcPBM binding intensity (ln)
1,ATATAGTAAATGTTCACACATACAAATATATATATA [CACACA_site5518],9.96 ± 0.15
2,TTTTCTTGATTTTGTAGTACATTTTTACGATATTTT [XGTACX_site63],11.4 ± 0.68
3,ATGTAAATTATTATTCTATTGTTATATACACAATAT [XGTACX_negctrl_site332],9.95 ± 0.11
4,AAAATTATATTTTATAGAAATTTAAATAAATATATA [GTGCAC_negctrl_site199],9.51 ± 0.16
5,TTTTTAAAAATAACAGAAAAGAATTACAGATTTTTT [XGTACX_negctrl_site472],9.72 ± 0.13
6,CACATACATATATACACACACAAAATAATAAAATAA [CACACA_site2308],10.2 ± 0.17
7,AGAGAGAAAGGTATAACATGCGATAAATTTTAGAAG [TGCATGCA_site37],9.745 ± 0.049
8,TTTTTTACATCCATAAAACTTTTTCTCTTTTAAAAT [CACACA_negctrl_site1745],10.1 ± 0.2
9,AAATCACTTTTTAAGTGTACTTGGTCTTTCTCATTT [XGTACX_site7221],11.3 ± 0.92
10,ATATAGTTCGTTTATACACACATGATAAGATATTTA [CACACA_site1947],10.06 ± 0.021
11,TAATTATAAATTATAGTGCATAAAATTGTAGCATAA,9.89 ± 0.085
12,AAAATATGATATGAAAAATTTGTTATATATACATAA [CACACA_negctrl_site1529],9.6 ± 0.18
13,GACATTTGTGAGCTTGAGCCGTCAAACCACTAAATA [CACACA_negctrl_site552],9.99 ± 0.028
14,AAAAAATTGAAGGAGTGTACATTTATACTTTATTTT [XGTACX_site8623],11.1 ± 0.15
15,TGTAGAATTTCCTGAACATGCAAATAATTTTCCTTA [TGCATGCA_site881],9.795 ± 0.078
16,AACATAATAAAAATGGATATAATTCAAAGTTTGTAA [TGCATGCA_negctrl_site529],9.73 ± 0.13
17,TGTTATTCGACATATACACACAAATAACAATTTAAA [CACACA_site5076],10.2 ± 0.33
18,AGGTCTGTTTTATATTGTACATAAAAAGTGCACATG [XGTACX_site4529],11.2 ± 0.74
19,TGTATTAATATGGTAATACACACTAATATACTTTTG [CACACA_site1610],10.2 ± 0.21
20,TTCTATAAGTATAAATGTACAAAAAAAACATCATTC [XGTACX_site5450],10.8 ± 0.38
21,ATTTTTTTTTAATGCAAAAGGTGATGATCGGTCATA [CACACA_negctrl_site959],10.2 ± 0.35
22,CATATTCCAAGAATGTGTACATAATTTTTTTTTTTT [XGTACX_site4310],11.4 ± 0.8

row,Sequence,gcPBM binding intensity (ln)
1,CTCATAATTTCTGAACGTACGTATTTCTCATTTTTA [XGTACX_site7296],11.3 ± 0.76
2,TGTTAATTTATATTATGTACTTATAATTATCGTTTG [XGTACX_site1032],11.3 ± 0.95
3,TATAGATGTATGTACATACACACATATATAAATAAA [CACACA_site1789],11.3 ± 0.76
4,ATAATTCTAAATAAATGTACACACAAAAATAAATGT [XGTACX_site3547],11.4 ± 0.69
5,TAACGCATGAATATAATATATATATATATAAAAATA [GTGCAC_negctrl_site218],9.62 ± 0.12
6,ATTGTATGCACGTCTGCACACTTTTTTTTTTTTTTT [CACACA_site2082],10.4 ± 0.14
7,GTTAATTGAAGATTCACACATAAATATATATATAAT [CACACA_site5482],9.79 ± 0.12
8,TAGATAAATGGGTATACACACATATACATAAATATA [CACACA_site375],10.02 ± 0.085
9,GTAAGATTTCTTGTTGCATGCGGTAAAAAGTAAAAT [TGCATGCA_site469],10.6 ± 0.41
10,AACTTTATACTTTTTTGTACTTAACCCTTACATTTT [XGTACX_site5798],11.1 ± 0.38
11,TTTATATATTTATTCACACATATAATATTCCGTCGT [CACACA_site6120],9.84 ± 0.11
12,AACATACATAAACACACACACACACCCACACCCACA [CACACA_site8058],10.4 ± 0.45
13,TTTATGAAACAGTGCACACATAAAAATATATACATA [CACACA_site2992],10.5 ± 0.38
14,TACACCCACCAACACACACACACACCCAAAAAAAAA [CACACA_site498],10.5 ± 0.45
15,AAATACCTGATATATACACACTATGTTTTTCTTTTT [CACACA_site6680],9.83 ± 0.34
16,TATTAAATTATATAGACACACATTATATATATATAT [CACACA_site4345],10.1 ± 0.35
17,CAATTAAATATATGAACACACATGTGAACTTTCTAT [CACACA_site3977],10.18 ± 0.071
18,AATATAGATACATATACACACACACCCATACATATA [CACACA_site9137],10.1 ± 0.13
19,AAAAAGAAATATTTATGTACATAATAATAATATTTT [XGTACX_site4693],11.2 ± 0.59
20,AAGAAAAACATTACGTGTACCAAAAGGCCTGTCAAC [XGTACX_site267],11.2 ± 0.51
21,GTAACAAATAAAATAACACACATGTCGAAATGTATG [CACACA_site2971],9.945 ± 0.007
22,AAAATGGGTTAGCACATACACACCAATATATTATAT [CACACA_site3082],10.04 ± 0.021
